# Measurements: PubChem BioAssay
# The inconclusive results got no clear call from the source; some entries with a clear call stand among them for comparison. The source made the active and inactive calls.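 Rule for the calls, unless noted: active = thallium flux slope beyond 3 SD from same-plate DMSO control mean in most replicates, usually higher, sometimes lower; inconclusive = repeat tests gave conflicting results; inactive = no significant difference from controls in most replicates.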
# Assays:
# [1] = target: Solute carrier family 12 member 5 (Homo sapiens) (UniProt Q9H2X9); assay: modulation of KCC2 thallium flux in HEK cells – cell-based, ouabain, retest, confirmation (AID 1717); conditions: HEK293-KCC2, thallium flux FluoZin2 fluorescence, at 10 µM, bidirectional: low = inhibitor, high = activator;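 note: slope of initial-normalized fluorescence between seconds 10 and 20 after thallium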
# [2] = native HEK Tl+ uptake effects, second counter-screen – HEK cells, counterscreen 2, counter-screen for KCC2 modulator project, confirmation (AID 1718;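 active = thallium flux slope above the same plate's solvent-control mean plus 3 SD in both duplicate wells; inconclusive = duplicate wells that disagreed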;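 note: run without ouabain in cells lacking the KCC2 cotransporter; slope of fluorescence scaled to its starting value between 10 and 20 s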); conditions: HEK293 parental, thallium flux FluoZin-2 fluorescence slope; at 10 µM
# Procedure, shortened: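 System: Parental HEK cells | Also added: Thallium sulfate stimulus buffer | Compound dosing: Single 10 µM final compound dose, 0.1% DMSO | Schedule: Overnight cell culture at 37 °C, 48 min dye loading, compound before thallium | Signal: FluoZin-2 fluorescence kinetics | Repeats: Replicate wells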
# UniProt Q9H2X9, sequence (Q9H2X9 whole entry, looked up): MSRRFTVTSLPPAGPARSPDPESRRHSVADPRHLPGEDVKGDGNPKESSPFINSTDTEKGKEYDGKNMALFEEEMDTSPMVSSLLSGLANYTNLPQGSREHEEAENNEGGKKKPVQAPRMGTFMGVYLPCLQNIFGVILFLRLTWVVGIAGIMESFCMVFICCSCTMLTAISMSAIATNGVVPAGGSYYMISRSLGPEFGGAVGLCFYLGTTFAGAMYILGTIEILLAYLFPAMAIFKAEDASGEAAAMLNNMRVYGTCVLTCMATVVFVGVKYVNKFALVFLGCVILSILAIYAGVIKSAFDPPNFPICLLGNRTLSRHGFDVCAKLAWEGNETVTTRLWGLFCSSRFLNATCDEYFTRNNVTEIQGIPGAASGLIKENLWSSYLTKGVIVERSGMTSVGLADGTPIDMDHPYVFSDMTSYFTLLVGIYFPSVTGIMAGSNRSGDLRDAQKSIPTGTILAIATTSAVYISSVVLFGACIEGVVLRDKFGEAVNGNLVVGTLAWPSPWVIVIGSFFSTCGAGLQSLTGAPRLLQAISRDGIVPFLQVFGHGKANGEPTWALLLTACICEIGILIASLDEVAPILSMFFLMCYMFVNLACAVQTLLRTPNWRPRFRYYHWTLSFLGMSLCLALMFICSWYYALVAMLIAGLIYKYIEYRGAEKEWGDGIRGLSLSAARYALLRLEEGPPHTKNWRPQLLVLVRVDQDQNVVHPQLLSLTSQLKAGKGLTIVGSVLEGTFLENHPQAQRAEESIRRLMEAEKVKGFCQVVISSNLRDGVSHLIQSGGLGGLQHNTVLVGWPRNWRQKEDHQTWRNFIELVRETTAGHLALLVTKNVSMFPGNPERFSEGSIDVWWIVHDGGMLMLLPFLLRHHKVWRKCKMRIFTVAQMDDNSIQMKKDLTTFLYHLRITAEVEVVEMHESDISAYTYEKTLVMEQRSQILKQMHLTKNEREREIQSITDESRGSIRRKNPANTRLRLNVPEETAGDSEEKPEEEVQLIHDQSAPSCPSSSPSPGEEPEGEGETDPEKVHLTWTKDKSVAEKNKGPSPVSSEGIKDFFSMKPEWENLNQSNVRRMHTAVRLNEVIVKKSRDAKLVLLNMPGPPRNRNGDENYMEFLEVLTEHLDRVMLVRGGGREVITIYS
SMILES,"raw Tl+ flux slope (below DMSO = inhibition, above = activation) [1]",thallium flux slope [2]
Cc1ccc(-c2cc(-c3n[nH]c(=S)n3C)c3ccccc3n2)cc1,inconclusive: 0.0298,inconclusive: 0.0103
O=C(CCCn1c(=O)[nH]c2cc(Cl)ccc2c1=O)NCC1CCCO1 (configuration not stated),inactive: 0.0207,inconclusive: 0.00996
Cc1ccc(NCc2n[nH]c(=S)n2-c2ccccc2)cc1Cl,inconclusive: 0.0309,inactive: 0.00946
CCOc1[nH]n(-c2ccccc2)c(=O)c1C=Nc1ccc(F)cc1F,inconclusive: 0.0227,inconclusive: 0.0133
CCCCn1nnnc1SCC(=O)NCc1ccco1,inactive: 0.0205,inconclusive: 0.00988
C=CCn1c(CSc2nc3ccccc3s2)n[nH]c1=S,active: 0.0144,inconclusive: 0.0123
CN(C)S(=O)(=O)N(CC(=O)NCCSCc1ccccc1)c1ccccc1,inconclusive: 0.018,inactive: 0.01
COc1ccc(C(=O)NC(=S)N2CCCCC2)cc1[N+](=O)[O-],inactive: 0.0261,inconclusive: 0.0112
O=C(CSc1nc2cc(C(F)(F)F)ccc2n1Cc1ccccc1)NC1CCS(=O)(=O)C1 (configuration not stated),inactive: 0.0201,inconclusive: 0.0118
S=c1nc(-c2ccccc2)c(-c2ccccc2)n[nH]1,inconclusive: 0.0248,active: 0.0204
CCCCNC(=S)N/N=C/c1ccccc1F,inconclusive: 0.0304,active: 0.0124
CC1CCCC(NC(=O)CCn2c(=S)oc3ccccc32)C1C (configuration not stated),inactive: 0.0225,inconclusive: 0.0108
C/C(=N\NC(=O)c1cccc(Cl)c1)C1C(=O)c2ccccc2C1=O,inconclusive: 0.015,inactive: 0.0089
O=C(N/N=C/c1cc(Br)c(Br)s1)c1ccncc1,inconclusive: 0.0258,inactive: 0.0111
NC(=O)SCC(=O)Nc1ccc(Cl)c(Cl)c1,inactive: 0.0192,inconclusive: 0.0128
CC(=O)c1sc(-c2ccc(F)cc2)cc1NS(=O)(=O)c1ccccc1,inconclusive: 0.03,inconclusive: 0.0113
CCOc1ccccc1N1CCN(C(=O)/C=C/c2cccc([N+](=O)[O-])c2)CC1,active: 0.0165,inconclusive: 0.00942
S=C(NCc1ccco1)Nc1ccc(Br)cc1Cl,inactive: 0.0178,inconclusive: 0.012
COc1ccc(C(=O)CSc2nnnn2Cc2ccccc2)cc1,inconclusive: 0.0155,inactive: 0.0116
CCc1oc2ccccc2c1C(=O)c1cc(Br)c(O)c(Br)c1,inconclusive: 0.0169,inconclusive: 0.0128
S=c1nccc(-c2cc(Cl)sc2Cl)[nH]1,inconclusive: 0.0261,inconclusive: 0.0113
